Consider four substances from publication PMC5429823.

Chains of the proteins cited; added tags and fusions are not shown. Lines headed by an entry give the natural chain unless they say otherwise; changes in a name come on top.
UniProt Q498D1: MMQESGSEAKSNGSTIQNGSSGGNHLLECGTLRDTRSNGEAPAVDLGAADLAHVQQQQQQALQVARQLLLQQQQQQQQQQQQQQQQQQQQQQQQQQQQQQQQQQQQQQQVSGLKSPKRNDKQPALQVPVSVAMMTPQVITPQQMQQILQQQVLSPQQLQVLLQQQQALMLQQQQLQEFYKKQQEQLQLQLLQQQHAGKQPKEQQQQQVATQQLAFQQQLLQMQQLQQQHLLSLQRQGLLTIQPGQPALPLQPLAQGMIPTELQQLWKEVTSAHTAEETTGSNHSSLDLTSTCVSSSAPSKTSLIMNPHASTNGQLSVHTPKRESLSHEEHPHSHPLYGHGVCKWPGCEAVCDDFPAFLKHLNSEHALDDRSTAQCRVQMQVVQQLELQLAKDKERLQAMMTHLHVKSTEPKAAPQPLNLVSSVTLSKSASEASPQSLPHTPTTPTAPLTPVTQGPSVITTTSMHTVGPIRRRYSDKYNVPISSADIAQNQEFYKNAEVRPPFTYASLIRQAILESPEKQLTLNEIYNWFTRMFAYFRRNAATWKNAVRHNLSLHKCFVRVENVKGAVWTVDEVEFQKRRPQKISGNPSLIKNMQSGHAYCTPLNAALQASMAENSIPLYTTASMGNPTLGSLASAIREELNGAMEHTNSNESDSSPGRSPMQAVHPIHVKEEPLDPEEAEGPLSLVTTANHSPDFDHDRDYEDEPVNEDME
UniProt Q99P99: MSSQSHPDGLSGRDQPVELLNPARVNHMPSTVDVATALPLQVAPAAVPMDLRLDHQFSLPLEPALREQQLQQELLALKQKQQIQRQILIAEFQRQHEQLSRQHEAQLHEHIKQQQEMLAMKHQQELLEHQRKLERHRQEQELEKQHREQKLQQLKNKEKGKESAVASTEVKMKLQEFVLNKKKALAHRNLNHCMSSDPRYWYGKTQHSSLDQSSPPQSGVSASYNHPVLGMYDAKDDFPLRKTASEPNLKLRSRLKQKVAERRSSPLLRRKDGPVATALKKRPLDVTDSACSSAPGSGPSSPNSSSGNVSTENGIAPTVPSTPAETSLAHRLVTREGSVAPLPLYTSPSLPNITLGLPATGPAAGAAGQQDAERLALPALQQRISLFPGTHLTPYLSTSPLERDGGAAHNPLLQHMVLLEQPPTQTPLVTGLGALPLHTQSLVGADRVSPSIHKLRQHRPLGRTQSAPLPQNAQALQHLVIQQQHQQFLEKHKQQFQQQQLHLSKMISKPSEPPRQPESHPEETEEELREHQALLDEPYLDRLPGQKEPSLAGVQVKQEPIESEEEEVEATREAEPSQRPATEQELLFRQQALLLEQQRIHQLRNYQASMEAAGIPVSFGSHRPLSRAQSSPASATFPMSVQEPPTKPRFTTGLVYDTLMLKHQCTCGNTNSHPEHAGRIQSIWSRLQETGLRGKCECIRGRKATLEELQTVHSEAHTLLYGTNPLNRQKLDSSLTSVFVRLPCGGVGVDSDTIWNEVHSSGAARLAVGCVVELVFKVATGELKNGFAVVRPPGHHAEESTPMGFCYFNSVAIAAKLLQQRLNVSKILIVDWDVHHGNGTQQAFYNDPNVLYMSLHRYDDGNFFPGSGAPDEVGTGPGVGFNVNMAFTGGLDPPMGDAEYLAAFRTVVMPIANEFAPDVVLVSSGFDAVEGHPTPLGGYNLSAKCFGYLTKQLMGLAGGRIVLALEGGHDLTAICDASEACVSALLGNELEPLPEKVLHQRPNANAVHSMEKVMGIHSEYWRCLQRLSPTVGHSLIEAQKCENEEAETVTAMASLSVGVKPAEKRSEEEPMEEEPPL

These are yes or no findings as the source states them, for the method shown. In cells and extracts the contact can be indirect. Some entries that bind do so weakly or less than the wild type.

Assay [1] has as its target DeSUMOylated GST-FOXP1 (rat) (UniProt Q498D1). Nature of the assay: pull-down; SUMOylated or Senp1-deSUMOylated GST-FOXP1 immobilised on glutathione beads, incubated with cortical neuronal lysates for 1 hr, extensive washing, western blot; only the target purified.
The target of assay [2] is Ctbp1 (rat (endogenous in cultured cortical neurons)) (UniProt Q9Z2F5). Kind of assay: co-IP; DIV7 cortical neuronal cultures lysed and immunoprecipitated with anti-Ctbp1 antibodies; immunoblot.
Assay [3] has the same target. Kind of assay: co-IP; Cultured cortical neurons with or without glutamate stimulation; PFA fixation step before co-immunoprecipitation of the Ctbp1 complex to prevent deSUMOylation; immunoblot for FOXP1, Ctbp1, LSD1, HDAC2.
The target in the next assay is TAP-FOXP1-K670R (rat) (UniProt Q498D1). Nature of the assay: pull-down; HEK293T co-transfected with TAP-FOXP1 variants and GFP-FOXP1; lysis in 0.5% TX-100, 150 mM NaCl, 25 mM Tris pH 7.5; cleared lysates on streptavidin beads 1 hr; immunoblot.
The target in the next assay is TAP-FOXP1-WT (rat) (UniProt Q498D1). The description is as above.

Regarding Ctbp1 (from UniProt Q9Z2F5 1-430), the binding result in assay [1] is “binds weakly”.
With “FOXP1 (endogenous, cortical neurons) (from UniProt Q498D1 1-711)”, the binding entry in assay [2] and in assay [3] was “binds” in each case.
Turning to GFP-FOXP1 (from UniProt Q498D1 1-711), the binding result with TAP-FOXP1-K670R (rat) and with TAP-FOXP1-WT (rat) was “binds” throughout.
Regarding “class IIa histone de-acetylase HDAC4 (from UniProt Q99P99 1-1077)”, in assay [2], the binding entry is reported as “no binding”.
